According to patent US20230226223A1 (SOLA BIOSCIENCES, published 2023):

Molecular target: GFP-HTTQ74 reporter construct
Experiment: cell-based or functional assay

B1: Construct 11, JB1(17-75)-2XQBP1 (designed binder)
chain: MGTGSEFDEEIKRAYRRQALRYHPDKNKEPGAEEKFKEIAEAYDVLSDPRKREIFDRYGEEGLKGSDIGGGGSGGGGSGGGGSGGGGSAAASNWKWWPGIFDGLESNWKWWPGIFD
B1 was tested. Which “% Aggregation (relative to Q74 alone), filter trap assay” value did it give?
Its value is 102%.
